# Data from PubChem BioAssay AID1768 (National Center for Advancing Translational Sciences (NCATS), 2009).
# The whole screen tested about 270,000 compounds, of which about 620 (0.23%) were called active. The inconclusive results got no clear call from the source; some entries with a clear call stand among them for comparison. Calls follow the shape of the dose curve; as a rule, active = well fitted inhibition curve with a large enough effect in the polarisation, with a control signal flat (not every such curve was filed as active); inconclusive = small, poorly fitted or top-dose-only effect, or effect the other way, or a change in a side signal; inactive = no such curve, though single readings can be large or run the other way; the % refers to the polarisation. A potency beside an inconclusive call is a rough fit, not a confirmed value. “Side channel” marks fits to a control or component signal instead of the main read-out.
# Target: Menin (Homo sapiens) (UniProt O00255)
# Chain of UniProt O00255 (O00255 whole entry, looked up): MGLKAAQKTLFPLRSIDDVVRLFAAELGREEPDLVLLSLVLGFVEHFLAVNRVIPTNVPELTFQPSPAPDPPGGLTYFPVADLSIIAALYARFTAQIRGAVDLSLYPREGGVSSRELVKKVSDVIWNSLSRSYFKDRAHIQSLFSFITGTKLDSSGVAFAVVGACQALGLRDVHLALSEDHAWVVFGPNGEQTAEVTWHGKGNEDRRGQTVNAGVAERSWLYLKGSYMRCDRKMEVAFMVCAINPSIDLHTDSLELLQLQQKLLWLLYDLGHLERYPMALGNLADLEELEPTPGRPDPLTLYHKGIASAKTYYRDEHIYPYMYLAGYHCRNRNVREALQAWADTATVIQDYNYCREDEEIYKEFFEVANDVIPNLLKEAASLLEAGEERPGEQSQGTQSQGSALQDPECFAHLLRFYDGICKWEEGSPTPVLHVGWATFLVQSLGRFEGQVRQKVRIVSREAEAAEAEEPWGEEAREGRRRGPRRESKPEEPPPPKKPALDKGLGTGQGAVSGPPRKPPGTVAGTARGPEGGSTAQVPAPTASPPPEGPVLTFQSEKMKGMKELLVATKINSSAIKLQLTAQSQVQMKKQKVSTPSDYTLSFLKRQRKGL
# Assay: qHTS Assay for Inhibitors Targeting the Menin-MLL Interaction in MLL Related Leukemias: Competition With Texas Red Labeled MLL-derived Mutant Peptide
# Conditions: fluorescence polarization; series mostly up to 61.6 µM
# Potency is read from the fitted curve at half-maximal effect; tags tell the direction and shape of the fitted curve or compound fluorescence and quenching.
row,Compound,Potency
1,O=S(=O)(Nc1ccc2nc(-c3ccco3)[nH]c2c1)c1ccccc1,"inconclusive: 39.8 µM [quencher, side channel, single point]"
2,CCCCC1OC2(C)OC(=N)C1(C#N)C(C#N)(C#N)C2c1ccccc1 (centres undefined),inactive
3,O=C(NC(=S)NNC(=O)c1ccccc1O)c1ccc([N+](=O)[O-])cc1,"inconclusive: 35.5 µM [quencher, side channel, single point]"
4,COC(=O)c1ccccc1NC(=O)c1ccc2nccnc2c1,"inconclusive: 28.2 µM [quencher, side channel, partial curve]"
5,COc1ccc(C(=O)NC(=S)NCc2cccnc2)cc1Cl,inactive
6,CC(C)C[C@@H](CC#N)N1CCN(CCc2ccccc2)CCC1=O,"inconclusive: 39.8 µM [inhibitor, single point]"
7,CCCCn1c(N)c(N(CC(C)C)C(=O)C2CCN(S(=O)(=O)c3ccc(C)c(C)c3)CC2)c(=O)[nH]c1=O,"inconclusive: 35.5 µM [fluorescent, side channel, single point]"
8,O=[N+]([O-])c1ccc(N2N=C(c3ccco3)CC2c2ccccc2)cc1 (centres undefined),"inconclusive: 8.91 µM [quencher, side channel, partial curve]"
9,COc1ccccc1N1CCN(C(=O)c2cccc(N3C(=O)C4C5C=CC(C5)C4C3=O)c2)CC1 (centres undefined),"inconclusive: 3.55 µM [inhibitor, partial curve, poor fit]"
10,COc1ccc(OC)c(NC(=O)c2cc(-c3cc(C)cc(C)c3O)n[nH]2)c1,"inconclusive: 31.6 µM [quencher, partial curve]"
11,CCc1cc2c(=O)c(-c3ccc(F)cc3)c(C)oc2cc1OCC(=O)O,"inconclusive: 22.4 µM [inhibitor, single point]"
12,CCC(=O)Nc1c(-c2ccc3ccccc3c2)nc2ccccn12,inactive
13,Cc1ccnc(NC(=O)/C=C/c2ccccc2Cl)c1,"inconclusive: 12.6 µM [quencher, side channel, partial curve]"
14,Cc1ccc(N2CCN(S(=O)(=O)c3nnc(NC(=O)c4ccco4)s3)CC2)cc1,"inconclusive: 28.2 µM [quencher, side channel, single point]"
15,CCOC(=O)c1cc(CC)sc1NC(=O)COc1ccc2c(C)cc(=O)oc2c1,inactive
16,CCN(C(=O)/C=C/c1cc(OC)c(OC)c(OC)c1)C1CCCCC1,"inconclusive: 0.631 µM [inhibitor, full curve, poor fit]"
17,O=C(O)CP(=O)(O)O,"inconclusive: 20 µM [inhibitor, partial curve, poor fit]"
18,CN(Cc1c(C(=O)N/N=C/c2cccs2)nnn1-c1nonc1N)c1ccccc1,"inconclusive: 25.1 µM [quencher, side channel, single point]"
19,COc1ccc(/C(C)=N/NC(=O)c2nnn(-c3nonc3N)c2-c2ccccc2)cc1,"inconclusive: 35.5 µM [fluorescent, side channel, partial curve]"
20,CNc1oc(/C=C/c2cccc(OC)c2)nc1C#N,"inconclusive: 31.6 µM [quencher, side channel, single point]"

row,Compound,Potency
1,COc1ccc(CCN2CC(C(=O)NCc3ccco3)CC2=O)cc1OC (centres undefined),"inconclusive: 39.8 µM [quencher, side channel, single point]"
2,COc1ccc(OCCOCCN2CCc3ccccc3C2)cc1,"inconclusive: 22.4 µM [fluorescent, side channel, single point]"
3,CC(SC1=NCCS1)C(=O)Nc1nnc(-c2ccc(Cl)cc2)s1 (centres undefined),"inconclusive: 31.6 µM [quencher, side channel, single point]"
4,CC(C)(C)C(=O)Nc1ccc2oc(-c3cc(F)c(F)cc3Cl)nc2c1,"inconclusive: 39.8 µM [fluorescent, side channel, single point]"
5,COc1ccc(-n2ccc(=O)c(C(=O)Nc3ccc(S(=O)(=O)Nc4nccs4)cc3)n2)cc1,"inconclusive: 39.8 µM [fluorescent, single point]"
6,Cc1ccc(C)n1N1C(=O)/C(=C\c2ccc(Cl)cc2)SC1=S,"inconclusive: 14.1 µM [quencher, side channel, partial curve]"
7,COc1cccc(/C=C2\Oc3cc(OCC(=O)N4Cc5ccccc5C[C@H]4C(=O)O)ccc3C2=O)c1,"inconclusive: 20 µM [quencher, side channel, single point]"
8,COC(=O)[C@@]1(Cc2ccccc2)[C@H]2c3cc(C(=O)N4CCCC4)n(CCc4ccccn4)c3C[C@H]2CN1C(=O)c1ccccc1,"inconclusive: 22.4 µM [inhibitor, partial curve, poor fit]"
9,O=C(c1ccc(CS(=O)(=O)c2ccccc2)o1)N1CCN(c2ccccc2)CC1,"inconclusive: 11.2 µM [quencher, side channel, single point]"
10,Cc1[nH]n(-c2ccc([N+](=O)[O-])cc2)c(=O)c1C=NCC1CCCO1 (centres undefined),"inconclusive: 31.6 µM [quencher, side channel, single point]"
11,O=C(COc1ccc(Br)cc1)NNC(=S)NC(=O)c1ccccc1[N+](=O)[O-],"inconclusive: 25.1 µM [quencher, side channel, single point]"
12,COc1cccc(/C=N/Nc2ncnc3c2ncn3Cc2ccccc2)c1O,"inconclusive: 25.1 µM [quencher, side channel, partial curve]"
13,Nc1ccc2nc(-c3cccc(-c4nc5ccc(N)cc5[nH]4)n3)[nH]c2c1,"inconclusive: 11.2 µM [quencher, side channel, partial curve]"
14,COc1cccc(NC(C)C(=O)Nc2cc([N+](=O)[O-])ccc2Cl)c1 (centres undefined),"inconclusive: 14.1 µM [quencher, side channel, partial curve]"
15,O=C(Cc1ccc(F)cc1)NC(Cc1c[nH]c2ccccc12)C(=O)O (centres undefined),"inconclusive: 1.26 µM [inhibitor, full curve]"
16,COc1ccc(CNC(=O)CSc2nnc3c(n2)[nH]c2ccc(C)cc23)cc1,"inconclusive: 39.8 µM [fluorescent, side channel, single point]"
17,O=C(Cn1nnc(-c2ccc(Cl)cc2)n1)NC1CCN(Cc2ccccc2)CC1,"inconclusive: 39.8 µM [fluorescent, side channel, single point]"
18,CC(=O)Nc1cc(S(=O)(=O)C(F)(F)F)ccc1Cl,"inconclusive: 3.98 µM [inhibitor, full curve]"
19,Cc1c(Br)ccc(NC(=O)Cn2nc(-c3cccs3)ccc2=O)c1C,"inconclusive: 39.8 µM [fluorescent, partial curve]"
20,O=c1oc2cc(O)ccc2cc1-c1nc2c(s1)CCc1ccccc1-2,"inconclusive: 31.6 µM [quencher, side channel, partial curve]"

row,Compound,Potency
1,COc1ccc(-c2csc3nc(-c4cccnc4)nc(N4CCC(C(N)=O)CC4)c23)cc1OC,inactive
2,Clc1ccc(C2Nc3cccc4cccc(c34)N2)cc1,"inconclusive: 6.31 µM [quencher, side channel, partial curve]"
3,COc1ccc(OC)c(C2=Nn3c(nnc3-c3ccccc3OC)SC2)c1,inactive
4,COc1ccc(-c2noc(CCC(=O)Nc3ccc4c(c3)OCCO4)n2)cc1,"inconclusive: 28.2 µM [quencher, side channel, single point]"
5,Cc1ccccc1-c1ccc2ncnc(N3CCN(C)CC3)c2c1,"inconclusive: 39.8 µM [inhibitor, partial curve]"
6,COC(=O)c1c(NC(=O)CN2CCN(Cc3ccc4c(c3)OCO4)CC2)sc(C)c1C,"inconclusive: 7.94 µM [fluorescent, side channel, full curve]"
7,Cc1cccc(Oc2ncnc3onc(C)c23)c1C,inactive
8,CCC(=Nc1ccccc1)C1=C(O)CC(C)(C)CC1=O,inactive
9,COc1ccc(C2=N[C@@H](C(C)C)CO2)cc1,inactive
10,O=[N+]([O-])c1cc(Cl)cc2c1nc(NCCO)c1ccccc12,"inconclusive: 22.4 µM [quencher, side channel, partial curve]"
11,O=C(COC(=O)c1cccs1)Nc1nc(-c2ccccc2)cs1,inactive
12,NCCNC(=O)c1ccc(Cl)cc1,"inconclusive: 7.08 µM [inhibitor, partial curve]"
13,Cc1c(CNCCC2=CCCCC2)c(C(=O)O)c(C)n1Cc1ccccc1,"inconclusive: 10 µM [fluorescent, side channel, partial curve]"
14,COc1ccccc1/C=C/C1=NC(=C\C=C/c2ccccc2)/C(=O)O1,"inconclusive: 17.8 µM [quencher, partial curve]"
15,COc1ccc(/C=C2\SC(=S)N(Cc3cccnc3)C2=O)cc1C,"inconclusive: 3.55 µM [fluorescent, side channel, single point]"
16,COc1ccccc1COC(=O)N/C=C/c1ccco1,"inconclusive: 25.1 µM [quencher, side channel, partial curve]"
17,CCCCOc1cccc(C(=O)Nc2ccc(NC(=O)c3ccco3)cc2)c1,"inconclusive: 20 µM [fluorescent, side channel, partial curve]"
18,CC(=O)NNC(=S)NC(=O)c1ccc(C)cc1,"inconclusive: 25.1 µM [quencher, side channel, partial curve]"
19,COc1cc2c(cc1OC)[C@H](C)N(C(=O)CSc1nc(O)c(C(C)C)c(=O)[nH]1)CC2,"inconclusive: 5.01 µM [inhibitor, full curve]"
